Molecules are shown by their SMILES. The campaign covered roughly 45,000 compounds. About 200 (0.44%) were called active. Roughly 7% stayed inconclusive and do not appear here. Calls come from the whole dose curve; as a rule, active = well fitted activation curve with a large enough effect; inconclusive = small, poorly fitted or top-dose-only effect; inactive = no such curve, though single readings can be large or run the other way. The list shows a part of the results.

The nature of the assay: qHTS of TDP-43 Inhibitors: NCGC Sytravon Library Screen. Note: 0% is about no effect; nearly all actives have a fitted effect of over 55% in size. Particulars: yeast TDP-43 toxicity rescue, BacTiter-Glo growth, 24 h; series mostly up to 46.1 µM; growth rescue (activation): at the top concentration. In short, it runs like this:
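TDP-43-expressing yeast, pregrown in raffinose, seeded at OD600 0.02 in galactose medium with compound for 24 hr at 30 deg C. Growth read by BacTiter-Glo luminescence, so rescue of toxicity appears as activation.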
Regarding `Cc1ccc(N(C(=O)CNC(=O)c2ccco2)C(C(=O)NC2CCCC2)c2ccncc2)cc1` (stereo not drawn), the “growth rescue (activation)” value was inactive: 1.58%.

On to `COC(=O)c1c[nH]n2c(=O)c(C(C)C)c(C)nc12`, for which the “growth rescue (activation)” value was inactive: 8.96%.

`CCOc1ccc(C(=O)Nc2cccc(C(C)=O)c2)cc1[N+](=O)[O-]`: the “growth rescue (activation)” value was inactive: 5.39%.

Turning to `COc1ccc(OC)c(C2/C(=C(/O)c3cnn(-c4ccccc4)c3C)C(=O)C(=O)N2CCN(C)C)c1` (stereo not drawn), the “growth rescue (activation)” value was inactive: -0.125%.

For the compound `COCCNC(=O)CN(Cc1ccccc1)C(=O)CCC(=O)Nc1nccs1`, the “growth rescue (activation)” value was inactive: 2.78%.

With `CCOc1ccccc1NC(=O)COC(=O)c1c(CC)noc1C`, the “growth rescue (activation)” value is inactive: -2.82%.

On to `COCCNC(=O)CSc1nc2sccc2c(=O)n1-c1ccccc1`, for which the “growth rescue (activation)” value was inactive: 1.63%.

On to `O=C(N/N=C/C=C/c1ccco1)c1ccccc1Cl`, for which the “growth rescue (activation)” value was inactive: 16.2%.

In the case of `O=C(O)CNC(=O)c1ccc(NC(=O)/C(=C/c2cccc([N+](=O)[O-])c2)NC(=O)c2ccco2)cc1`, the “growth rescue (activation)” value was inactive: 3.39%.

Turning to `CCCCOC(=O)CN1C(=O)c2ccc(C(=O)OCCCC)cc2C1=O`, the “growth rescue (activation)” value is inactive: 21.4%.

On to `COc1cc(NC(=O)c2cccnc2)c(OC)cc1NC(=O)c1ccc(Br)cc1`, for which the “growth rescue (activation)” value was inactive: 10.8%.

Consider `CCOc1ccccc1N(CC(=O)NCc1ccco1)C(=O)CCC(=O)Nc1nccs1`, for which the “growth rescue (activation)” value was inactive: 7.62%.

As for `O=C(c1cccc(Br)c1)N1CCN(S(=O)(=O)N2CCCCCC2)CC1`, the “growth rescue (activation)” value is inactive: 25.9%.

`CC1(C(=O)NS(=O)(=O)Cc2cccc(Cl)c2)CCN1C(=O)Cc1ccc(Cl)cc1Cl` (stereo not drawn): the “growth rescue (activation)” value was inactive: 6.35%.

As to `CCOc1ccc(C(=O)c2ccccc2C(=O)O)cc1OCC`, the “growth rescue (activation)” value was inactive: 11.7%.

On to `CCOc1ccc(NCc2cccn2-c2nnc(N3CCC(C(=O)NCCCN4CC(C)CC(C)C4)CC3)s2)cc1` (stereo not drawn), for which the “growth rescue (activation)” value is inactive: -5.01%.

`CN(C)CC(C)(C)CNCc1cc(=O)oc2ccc3ccccc3c12`: the “growth rescue (activation)” value was inactive: -13.5%.

As to `Cc1cccc(NC(=O)Nc2nnc(-c3ccccc3)o2)c1`, the “growth rescue (activation)” value was inactive: 10.8%.

In the case of `O=C(NN1C(=O)C2C3c4ccccc4C(c4ccccc43)[C@@H]2C1=O)c1ccccc1` (stereo partly drawn), the “growth rescue (activation)” value was inactive: -12.8%.

For the compound `Cc1cccc(NC(=O)CN2C(=O)C(c3ccc(F)cc3)=NC23CCCCCC3)c1`, the “growth rescue (activation)” value was inactive: 14.8%.

For the compound `COc1ccccc1C(=O)Nc1ccc(N2CCN(C(C)=O)CC2)cc1`, the “growth rescue (activation)” value is inactive: 3.41%.

Turning to `Cc1c(F)cccc1NS(=O)(=O)c1ccc(OCCNS(C)(=O)=O)cc1`, the “growth rescue (activation)” value is inactive: -11.4%.

With `Cc1ccnc(NC(=O)c2cc3cc(F)ccc3s2)c1`, the “growth rescue (activation)” value was inactive: 12.9%.

With `Cc1c(C)c2c(OCC(=O)N[C@@H](CC(C)C)C(=O)O)cc3c(c2oc1=O)CCC(C)(C)O3`, the “growth rescue (activation)” value was inactive: 1.41%.

On to `COC(=O)c1nc(NNC(=O)c2ccccc2)sc1-c1ccccc1`, for which the “growth rescue (activation)” value was inactive: 6.61%.

`Cc1cc(C(=O)OCC(=O)NCc2ccccc2)c2ccccc2n1`: the “growth rescue (activation)” value is inactive: 9.44%.

As for `O=C(CNc1cccc2ccccc12)N/N=C/c1ccc(OC(=O)/C=C/c2ccco2)cc1`, the “growth rescue (activation)” value was inactive: 5.68%.

Consider `O=C(Nc1cccc(-c2nnc(-c3ccco3)o2)c1)c1ccccc1`, for which the “growth rescue (activation)” value was inactive: -5.7%.

(Values after PubChem BioAssay AID1347073 (National Center for Advancing Translational Sciences (NCATS), 2019).)
